Reference: PubChem BioAssay AID1768 (National Center for Advancing Translational Sciences (NCATS), 2009)
“And” between values parts separate entries of the source, which are not always exact repeats. Identical values can stand only once. Screen size: about 270,000 compounds; about 620 (0.23%) were called active. The inconclusive results got no clear call from the source; some entries with a clear call stand among them for comparison. Calls come from the whole dose curve; as a rule, active = well fitted inhibition curve with a large enough effect in the polarisation, with a control signal flat (not every such curve was filed as active); inconclusive = small, poorly fitted or top-dose-only effect, or effect the other way, or a change in a side signal; inactive = no such curve, though single readings can be large or run the other way; the % refers to the polarisation. Potencies beside an inconclusive call are fits to weak or partial responses and may not hold up. A note “side channel” means that the fit belongs to a control or component signal, not to the main read-out.

These molecules were tested against Menin (Homo sapiens) (UniProt O00255) (assay: qHTS Assay for Inhibitors Targeting the Menin-MLL Interaction in MLL Related Leukemias: Competition With Texas Red Labeled MLL-derived Mutant Peptide). Settings: fluorescence polarization; FP activity change, negative = inhibition: at 61.6 µM (top of the series).
Potency is the fitted concentration of half-maximal effect; tags give direction and shape of the fitted curve or compound fluorescence and quenching.
Throughout, for FP activity change, negative = inhibition: % of control where 0% means no effect.

UniProt O00255, sequence (O00255 whole entry, looked up): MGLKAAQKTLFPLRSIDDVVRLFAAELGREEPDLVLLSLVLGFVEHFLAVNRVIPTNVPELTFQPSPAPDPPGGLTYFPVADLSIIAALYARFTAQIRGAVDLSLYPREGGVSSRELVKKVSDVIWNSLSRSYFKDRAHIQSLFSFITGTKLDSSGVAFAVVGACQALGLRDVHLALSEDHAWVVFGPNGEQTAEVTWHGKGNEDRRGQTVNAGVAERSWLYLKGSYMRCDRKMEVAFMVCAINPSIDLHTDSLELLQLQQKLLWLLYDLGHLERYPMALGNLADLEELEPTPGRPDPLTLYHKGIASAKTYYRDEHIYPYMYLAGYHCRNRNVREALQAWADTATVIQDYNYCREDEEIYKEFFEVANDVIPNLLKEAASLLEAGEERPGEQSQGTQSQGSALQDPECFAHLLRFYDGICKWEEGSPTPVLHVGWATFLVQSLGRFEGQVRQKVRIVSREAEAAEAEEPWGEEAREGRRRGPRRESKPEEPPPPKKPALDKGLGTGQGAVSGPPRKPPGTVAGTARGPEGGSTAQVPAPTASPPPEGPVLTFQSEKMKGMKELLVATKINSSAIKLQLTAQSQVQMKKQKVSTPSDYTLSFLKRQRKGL

Potency, inactive:
Cc1ccccc1/C=C/c1cc[n+](C)cc1
N=c1c(C(=O)NCc2ccco2)cc2c(=O)n3ccccc3nc2n1Cc1ccc(Cl)cc1

Potency, inconclusive:
Cc1cc(Nc2ccc(Cl)cc2)nc(-c2ccccc2O)n1 3.16 µM [quencher, side channel, full curve]
COc1ccc(C2=C/C(=C\c3cccc(OC(C)=O)c3)C(=O)O2)cc1 25.1 µM [quencher, side channel, single point]
Cc1ccc(NC(=O)CCS(=O)(=O)c2cccc3nonc23)cc1Cl 35.5 µM [fluorescent, side channel, single point]
COc1ccc([N+](=O)[O-])cc1NCC(=O)c1ccc(C)cc1 20 µM [quencher, side channel, single point]
O=C(CC(=O)c1cc(Cl)ccc1O)c1ccccc1 28.2 µM [quencher, side channel, single point]
Cc1ccc(C(C(=O)NC2CCCCC2)N(CC2CCCO2)C(=O)CNC(=O)c2cccs2)cc1 (stereo not given) 7.08 µM [inhibitor, full curve]
CCCCCc1ccc(OCCOCCn2c[n+](C)c3ccccc32)c(CCCCC)c1 0.891 µM [fluorescent, side channel, full curve, poor fit]
CCc1ccc(C2=NN(CCC(=O)NC(C)c3ccc4c(c3)OCCO4)C(=O)CC2)cc1 (stereo not given) 7.08 µM [fluorescent, side channel, partial curve]
CC(OC(=O)c1cc(S(=O)(=O)Nc2ccc(F)cc2)ccc1Cl)C(=O)Nc1ccc2c(c1)OCCO2 (stereo not given) 31.6 µM [quencher, side channel, partial curve]
CCCCC(=O)NC(c1ccccc1Cl)c1c(O)ccc2ccccc12 (stereo not given) 39.8 µM [inhibitor, single point]
O=C(CNS(=O)(=O)c1ccccc1)Nc1ccc(C(F)(F)F)cc1 28.2 µM [inhibitor, single point]
CC1CC(C)CN(S(=O)(=O)CC23CCC(CC2=O)C3(C)C)C1 (stereo not given) 3.55 µM [inhibitor, single point]
c1ccc(-c2nc(NCC3CCCO3)c3oc4ccccc4c3n2)cc1 (stereo not given) 11.2 µM [quencher, side channel, partial curve]
O=C(/C=C\c1ccc2c(c1)OCO2)Nc1nnc(SCC(=O)OCc2ccccc2)s1 28.2 µM [quencher, side channel, partial curve]
CN(Cc1c(C(=O)N2CCc3ccccc3C2)nc2ccc(Cl)cn12)C(C1CC1)C1CC1 2 µM [fluorescent, side channel, full curve]
Cc1ccc(C(=O)Oc2ccc(/C=C3\C(=N)N4N=C(N5CCOCC5)SC4=NC3=O)cc2)cc1 22.4 µM [quencher, partial curve]
COc1cc(/C=N/N(C)c2ccccc2)ccc1O 17.8 µM [quencher, side channel, partial curve]
OCC1(Cc2cccc(Cl)c2)CCCN(Cc2cnn(-c3ccccc3)c2)C1 (stereo not given) 7.08 µM [inhibitor, partial curve]
N#C/C(C(N)=O)=c1/ccc2c(c1)N1C3=C(CCCC3)CC3CCCCC31N=2 (stereo not given) 4.47 µM [inhibitor, full curve]
O=c1[nH][nH]c2cc(=O)n(-c3ccc(Cl)cc3)nc12 35.5 µM [quencher, side channel, single point]
COC(=O)c1ccc(NC(=S)NC2CCc3ccccc32)cc1 (stereo not given) 15.8 µM [quencher, side channel, partial curve]
Cc1ccc(NC(=S)N(Cc2ccc(Cl)cc2)Cc2ccc(C(=O)O)cc2)cc1Cl 12.6 µM [quencher, side channel, partial curve]
CC(C)(C)C1(C)OC(C(=O)NC2CCCCC2)C(C(=O)NC2CCCCC2)O1 (stereo not given) 25.1 µM [fluorescent, side channel, partial curve]
COc1cc(C(=O)OCCN2CCCCC2)ccc1O 8.91 µM [inhibitor, partial curve]
C/C(=N/NC(=O)CNC(=O)COc1ccccc1)c1ccc(Cl)cc1 35.5 µM [inhibitor, single point]
O=C(Nc1ccc(Nc2ccccc2)cc1)c1cccc(F)c1 15.8 µM [quencher, side channel, partial curve]
CCC(=O)N1CCN(c2c(Cl)cccc2[N+](=O)[O-])CC1 39.8 µM [fluorescent, side channel, single point]
NC(=O)NS(=O)(=O)Oc1ccccc1 10 µM [inhibitor, partial curve]
O=C(CSc1nnc(-c2cccnc2)n1Cc1ccco1)c1ccc2ccccc2c1 31.6 µM [quencher, side channel, single point]
COc1ccc2[nH]cc(CCNc3ccnc(-c4cccc(NS(C)(=O)=O)c4)n3)c2c1 15.8 µM [quencher, side channel, partial curve]
CC(CC(=O)Nc1ccc(Cl)c([N+](=O)[O-])c1)c1ccccc1 (stereo not given) 12.6 µM [quencher, side channel, partial curve]
COc1cc(C(=O)NS(=O)(=O)c2ccccc2C)ccc1Cc1cn(C)c2ccc(NC(=O)OC3CCCC3)cc12 14.1 µM [quencher, side channel, partial curve] and 17.8 µM [quencher, side channel, partial curve]

FP activity change, negative = inhibition, inactive:
CCC1OCCC=CC1C (stereo not given) -2.78% [at 11.7 µM]
